Data on 54 molecules can be found in ChEMBL document CHEMBL4888484, “Replenishing the malaria drug discovery pipeline: Screening and hit evaluation of the MMV Hit Generation Library 1 (HGL1) against asexual blood stage Plasmodium falciparum ,using a nano luciferase reporter read-out” (2022).

Hit rate of the full screen: of about 150,000 compounds, about 540 (0.36%) showed an effect of 50% or more. The list shows a part of the results.

This experiment has as its system Plasmodium falciparum. Description: Primary screen in NF54 nanoGlo assay, in single point, at 2uM, 72h; a lower Z score goes with more inhibition. Type of experiment: functional, Erythrocyte. The note with it: timepoint 72 hour.
`O=C1CN(C(=O)c2ccc(OCc3ccccc3)cc2)c2ccccc2N1`: the % Inhibition (commonly the relative decrease from the control value, in per cent) is listed as 7% and the Z score is reported as -1.3.

With `C=C(C)CS(=O)(=O)N1CCC(CCCn2ccnc2)CC1`, the “% Inhibition” value is reported as -5% and the Z score is given as 0.57.

Consider `CN(CC1(CO)CC1)C(=O)c1nc(-c2ccccc2)ns1`, for which the “% Inhibition” value was -5% and the Z score is recorded as 1.03.

Turning to `Cc1nn(Cc2ccccc2)c(C)c1CNC(=O)CCn1cnc2c(C)cccc2c1=O`, the “% Inhibition” value is reported as -4% and the Z score is listed as 0.6.

Regarding `Cc1nccn1-c1cc(N2CCN(CC(C)C)CC2)nc2ccnn12`, the “% Inhibition” value is -19% and the Z score was determined as 2.18.

Turning to `COCCN(C)C[C@H]1C[C@H](CO)CN(Cc2ccc3cccc(F)c3n2)C1`, the “% Inhibition” value amounted to 0% and the Z score is -0.06.

`COc1cc2c(cc1CN1CCN3C(=O)CNC(=O)[C@@H]3C1)OCCCO2`: the “% Inhibition” value is given as -22% and the Z score stood at 1.94.

Consider `Cc1cccc(-c2nc3cc(C)ccc3cc2CN2C[C@@H]3C(=O)NC(=O)[C@@H]3C2)c1`, for which the “% Inhibition” value is given as -5% and the Z score is reported as 1.03.

As to `COCCN(CC(=O)N(C)c1ccccc1F)C(=O)OC(C)(C)C`, the “% Inhibition” value was -11% and the Z score is 2.05.

As for `NC(=O)C12CC(CN1C(=O)c1cnn(C3CC3)c1)C2`, the “% Inhibition” value is recorded as 23% and the Z score is -2.7.

Take `Clc1ccc([C@@H]2CN(c3ccnc4ccccc34)CCO2)cc1`: the “% Inhibition” value was -19% and the Z score is 1.74.

As for `c1ccc(-c2nc(Oc3cccc4cccnc34)c3ccccc3n2)cc1`, the “% Inhibition” value was -6% and the Z score is on record as 1.08.

For `CC(C)NC(=O)NC(c1cccs1)c1cccs1`, the “% Inhibition” value is given as -1% and the Z score stood at 0.21.

Regarding `CO[C@H]1COCC[C@@H]1NC(=O)Cc1ccc(Cl)c(Cl)c1`, the “% Inhibition” value is listed as -12% and the Z score came out at 2.16.

Regarding `Cc1ccc(CN2C(=O)N[C@@](C)(CC(C)C)C2=O)c(C)n1`, the “% Inhibition” value is listed as 0% and the Z score is given as -0.02.

`CC(C)(C)[C@H](NCCN1C(=O)CCC1=O)c1ccccc1`: the “% Inhibition” value is listed as -7% and the Z score is recorded as 0.87.

With `CC1(C)Cc2cccc(NC(=O)CCc3nc(C4CCCC4)no3)c2O1`, the “% Inhibition” value was -11% and the Z score came to 1.47.

For `O=c1ccc(F)cn1CCc1ccc(F)c(F)c1`, the “% Inhibition” value is on record as -11% and the Z score was 2.07.

With `Fc1ccc2c(c1)C(c1ccccc1)=NNC(c1ccccc1)=N2`, the “% Inhibition” value is reported as -10% and the Z score came out at 1.13.

Regarding `Cc1cc(CNC(=O)NCCc2ncc(C)s2)n(C)n1`, the “% Inhibition” value is -12% and the Z score was determined as 1.99.

Turning to `CCCOc1ccc([C@@H]2c3c(-c4ccc(C)cc4)nn(C)c3C(=O)N2Cc2ccccc2)cc1`, the “% Inhibition” value is -5% and the Z score is recorded as 0.65.

With `C[C@](O)(CCc1ccccc1)C(=O)NCc1ncccc1O`, the “% Inhibition” value was 8% and the Z score is given as -1.01.

For `CC(C)Cc1cnc(NC(=O)N2CCCC2)s1`, the “% Inhibition” value is listed as -12% and the Z score was determined as 1.21.

Take `NC(=O)c1ccccc1NC(=O)CCn1nc2ccccn2c1=O`: the “% Inhibition” value is 2% and the Z score is on record as -0.37.

Regarding `CN(Cc1ccsc1)C(=O)Nc1ccc2oc(C3CC3)nc2c1`, the “% Inhibition” value came to 3% and the Z score is reported as -0.53.

As to `O=C(Cc1cccc(F)c1F)N1CC[C@@]2(CCCN(CC3CC3)C2=O)C1`, the “% Inhibition” value is listed as 3% and the Z score was -0.38.

`CC(=O)O[C@H]1C2CCC1C([N+]1(C)CCCCC1)CC2` (stereo partly drawn): the “% Inhibition” value is -5% and the Z score is reported as 0.64.

On to `c1cc2c(cc1-c1noc(-c3cc4n(n3)CCCC4)n1)CCC2`, for which the “% Inhibition” value is given as -12% and the Z score turned out to be 1.14.

For `c1nc2cc(-c3noc(-c4cn(CCC5CCCCC5)nn4)n3)ccc2[nH]1`, the “% Inhibition” value is given as -15% and the Z score was 1.95.

Regarding `Cc1cnn([C@@H](C)CNC(=O)c2c[nH]nc2-n2cnnn2)c1`, the “% Inhibition” value is -4% and the Z score stood at 0.61.

With `O=C(CN1CCN(Cc2ccccc2)CC1)NCc1ccco1`, the “% Inhibition” value amounted to 0% and the Z score is 0.04.

For `COc1ccc(S(=O)(=O)N2CCC(n3c(C)nc4cc(C(=O)N(C)C)ccc43)CC2)cc1`, the “% Inhibition” value came out at 5% and the Z score is on record as -0.87.

Regarding `CC1CN(C(=O)c2ccccc2)OC(c2ccc(Cl)cc2Cl)O1` (stereo not drawn), the “% Inhibition” value is on record as -3% and the Z score came to 0.48.

On to `CCNc1nc(C)c(C(=O)N[C@H]2CC(C)(C)Oc3cc(OC)ccc32)s1`, for which the “% Inhibition” value is -8% and the Z score came out at 1.05.

Consider `C[C@H]1CCCCN1CCNC(=O)c1ccc(-c2ccnc(N3CCCC3)n2)cc1`, for which the “% Inhibition” value was -13% and the Z score was determined as 1.69.

On to `C#CCCCCNC(=O)C(C)N1C(C)CCC1C` (stereo not drawn), for which the “% Inhibition” value was -7% and the Z score came to 1.02.

Consider `S=c1sc2c(N3CCc4ccccc43)ncnc2n1-c1ccccc1`, for which the “% Inhibition” value is recorded as -3% and the Z score is reported as 0.62.

As for `O=C(CN1CN(c2ccccc2)C2(CCN(S(=O)(=O)c3ccccc3)CC2)C1=O)NCCc1ccccc1`, the “% Inhibition” value is reported as -3% and the Z score is on record as 0.46.

Regarding `O=C(CCc1cc(O)no1)N[C@H]1CCOC[C@@H]1O`, the “% Inhibition” value turned out to be 6% and the Z score is -0.73.

Take `CC1CCCN(C2(N3CCCC(C)C3)C(=O)Nc3ccc(F)cc32)C1` (stereo not drawn): the “% Inhibition” value turned out to be 32% and the Z score is on record as -1.76.

For `CCCCOCC(=O)Nc1c(N(C)C)cccc1S(=O)(=O)N(C)C`, the “% Inhibition” value was 7% and the Z score was -0.85.

In the case of `COc1cc(C)c(-c2cncc([C@H]3OCC[C@@H]3C(=O)O)c2)c(C)c1`, the “% Inhibition” value is on record as -5% and the Z score is on record as 0.64.

For `Cc1nc(CN(C(=O)c2ncc(C(N)=O)cc2Cl)c2ccc(F)cc2)cs1`, the “% Inhibition” value is -12% and the Z score was found to be 1.6.

For `O=C(c1cccc(S(=O)(=O)NC2CC2)c1)N1CC2(CCOC2)C1`, the “% Inhibition” value is recorded as 1% and the Z score is -0.25.

`O=C(CC[C@H]1CCCN(Cc2c[nH]cn2)C1)N1CCN(c2ccccn2)CC1`: the “% Inhibition” value is on record as -1% and the Z score amounted to 0.18.

Take `O=C(NCCn1cc(-c2ccncc2)cn1)c1ccncc1`: the “% Inhibition” value is reported as 19% and the Z score is -2.44.

`CO[C@@]1(C(=O)NC23CCC(CC2)CC3)CCOC1`: the “% Inhibition” value is 8% and the Z score is -0.74.

Take `COc1ccccc1CCNC(=O)c1ccn2cnnc2c1`: the “% Inhibition” value was found to be 7% and the Z score is reported as -0.73.

For the molecule `Cc1ccc2c(c1)-c1c(ssc1=S)C(C)(C)N2C(=O)c1cccnc1`, the “% Inhibition” value came out at 8% and the Z score is on record as -1.49.

As to `O=C1CCCCCN1CCC(=O)N1CC[C@H](Cc2cccc(CO)c2)C1`, the “% Inhibition” value is recorded as -15% and the Z score is 1.95.

For the molecule `CCCn1ncc(C(=O)N[C@H]2CCN(C)C[C@H]2Cc2ccccc2)c1C`, the “% Inhibition” value is -17% and the Z score amounted to 1.61.

Regarding `COCC1CCC(Nc2cc(N3CCOCC3)ccc2C)CC1` (stereo not drawn), the “% Inhibition” value was -8% and the Z score came to 1.25.

With `CC1CCN(C(=O)N2CCN(S(=O)(=O)c3ccccc3)CC2)CC1`, the “% Inhibition” value is -4% and the Z score turned out to be 0.71.

Take `Cc1ncc(CN2CCC(n3nccc3NC(=O)C3CCCC3)CC2)s1`: the “% Inhibition” value is -5% and the Z score came to 0.64.
